Target: Human PDGF-AB/BB (3:1)
Assay: cell-based or functional assay

B1: H4H13132P (antibody, human IgG4 S228P, kappa)
heavy: QVQLVQSGAEVKKPGSSVKVSCKASGGTFSSYAISWVRQAPGQGLEWMGGIIPIFGTANYAQKFQGRVTITTDESTSTAYMELSSLRSEDTAVYYCAREGYGDYYFGMDVWGQGTTVTVSSASTKGPSVFPLAPCSRSTSESTAALGCLVKDYFPEPVTVSWNSGALTSGVHTFPAVLQSSGLYSLSSVVTVPSSSLGTKTYTCNVDHKPSNTKVDKRV[human IgG4 Fc with S228P (EU numbers) left out here]
light: [about 100 residues left out here][about 120 residues left out here]
(%) Inhibition, calcium flux in HLF cells, 1 nM ligand, 60 Second Timepoint: 100%
(%) Inhibition, calcium flux in HLF cells, 1 nM ligand, Full Time Course: 87%
(%) Inhibition, calcium flux in PASM cells, 1 nM ligand, 60 Second Timepoint: 100%
(%) Inhibition, calcium flux in PASM cells, 1 nM ligand, Full Time Course: 72%
IC50, calcium flux (FLIPR) in HLF cells, 1 nM ligand, 60 Second Timepoint: 0.54 nM
IC50, calcium flux (FLIPR) in HLF cells, 1 nM ligand, Full Time Course: 5.5 nM
IC50, calcium flux (FLIPR) in PASM cells, 1 nM ligand, 60 Second Timepoint: 4.5 nM
IC50, calcium flux (FLIPR) in PASM cells, 1 nM ligand, Full Time Course: 330 nM

From patent US20220242943A1
